Measurements published in patent publication US20140128367A1, “CYCLOALKYL-FUSED TETRAHYDROQUINOLINES AS CRTH2 RECEPTOR MODULATORS” (Merck Sharp & Dohme Corp., priority 2011, published 2014).

What follows are compounds tested against T1, hCRTH2 (Homo sapiens, UniProt Q9Y5Y4) (assay: not given). Conditions: Table A; [3H]PGD2 competition, HEK-hCRTH2 membranes.
T1 sequence (Q9Y5Y4 1-395): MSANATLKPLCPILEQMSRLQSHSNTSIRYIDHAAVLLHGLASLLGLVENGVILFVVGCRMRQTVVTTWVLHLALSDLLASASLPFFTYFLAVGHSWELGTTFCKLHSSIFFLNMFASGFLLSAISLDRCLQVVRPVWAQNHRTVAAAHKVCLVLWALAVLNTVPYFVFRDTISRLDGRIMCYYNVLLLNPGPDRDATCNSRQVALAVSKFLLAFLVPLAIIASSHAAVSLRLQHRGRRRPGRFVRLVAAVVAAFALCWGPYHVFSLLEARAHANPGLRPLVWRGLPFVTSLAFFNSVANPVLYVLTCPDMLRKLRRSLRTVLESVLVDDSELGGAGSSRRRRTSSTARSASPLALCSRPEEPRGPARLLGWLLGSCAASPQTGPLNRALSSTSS

With `CC12CCC1N(C(=O)c1ccc(OC(F)(F)F)cc1)c1ccccc1C2N(C(=O)CCC(=O)O)C1CC1` (single isomer, unassigned) [compound 158, 4-(cyclopropyl(cis,cis-8a-methyl-3-(4-(trifluoromethoxy)benzoyl)-1,2,2a,3,8,8a-hexahydrocyclobuta[b]quin-olin-8-yl)amino)-4-oxobutanoic acid] as the compound, how does the Ki read?
The Ki was 20.1 to 200 nM.

For “4-((cis,cis-3- (benzyloxycarbonyl)-5,6- difluoro-1,2,2a,3,8,8a- hexahydrocyclobuta[b]quin- olin-8- yl)(cyclopropyl)amino) butanoic acid [compound 117]”, which Ki is on record?
The Ki was 1 to 5 nM.

For `CCN(C(=O)[C@H](C)CC(=O)O)C1c2ccccc2N(C(=O)OCc2ccccc2)C2CCCC12` (stereo in doubt) [compound 104, 4-(phenylmethyl)cis,cis-9-[(3-carboxy-2(R)-methyl-1-oxopropyl)ethylamino]-1,2,3,3a,9,9a-hexahydro-4H-cyclopenta[b]quinoline-4-carboxylate], which Ki is on record?
The Ki was 201 to 7500 nM.

The compounds below were run against T1, hCRTH2 (assay: biochemical). Conditions: Ki (nM), Table A; [3H]PGD2 competition, HEK-hCRTH2 membranes.

With `O=C(O)COC(=O)N(C1CC1)[C@@H]1c2ccccc2N(C(=O)c2ccc(F)cc2)[C@@H]2CC[C@@H]21` (single isomer, unassigned) [32i, [[[cyclopropyl[cis,cis-3-(4-fluorobenzoyl)-1,2,2a,3,8,8a-hexahydrocyclobuta[b]quinolin-8-yl]amino]carbonyl]oxy]acetic acid] as the compound, how does the Ki read?
The Ki was 1 to 5 nM.

`CC1(C)C[C@@H]2[C@H](C1)N(C(=O)c1ccc(OC(F)(F)F)cc1)c1ccccc1[C@@H]2N(C(=O)CCC(=O)O)C1CC1` (racemic) [compound 20, 4-[Cyclopropyl[cis,cis-2,3,3a,4,9,9a-hexahydro-2,2-dimethyl-4-[4-(trifluoromethoxy)benzoyl]-1H-cyclopenta[b]quinolin-9-yl]amino]-4-oxobutanoic acid] was tested. Which Ki did it give?
The Ki was 20.1 to 200 nM.

Which Ki does the source give for `O=C(O)CCC(=O)N(C1CC1)C1c2cc(Cl)c(Cl)cc2N(C(=O)c2ccc(OC(F)(F)F)cc2)C2CCC21` (single isomer, unassigned) [compound 121, 4-[cyclopropyl[cis,cis-5,6-dichloro-1,2,2a,3,8,8a-hexahydro-3-[4-(trifluoromethoxy)benzoyl]cyclobuta[b]quinolin-8-yl]amino]-4-oxobutanoic acid] here?
Its Ki is 1 to 5 nM.

For `O=C(O)CCC(=O)N(C1CC1)C1c2ccc(Cl)cc2N(C(=O)c2ccc(OC(F)(F)F)cc2)C2CCCC21` (single isomer, unassigned) [17CT, 4-[[cis, cis-6-chloro-2,3,3a,4,9,9a-hexahydro-4-[4-(trifluoromethoxy)benzoyl]-1H-cyclopenta[b]quinolin-9-yl]cyclopropylamino]-4-oxobutanoic acid], which Ki is on record?
Its Ki is 1 to 5 nM.

`CCc1ccc(C(=O)N2c3cc(Cl)ccc3C(N(C(=O)CCC(=O)O)C3CCC3)C3CCCC32)cc1` (single isomer, unassigned) [17CQ, 4-[[cis, cis-6-chloro-4-(4-ethylbenzoyl)-2,3,3a,4,9,9a-hexahydro-1H-cyclopenta[b]quinolin-9-yl]cyclobutylamino]-4-oxobutanoic acid] was tested. Which Ki did it give?
Its Ki is 1 to 5 nM.

`O=C(O)CCC(=O)N(C1CC1)[C@@H]1c2ccc(Cl)cc2N(C(=O)c2ccc(OC(F)(F)F)cc2)[C@@H]2CCC[C@@H]21` (racemic) [17CG, 4-[[cis-6-chloro-2,3,3a,4,9,9a-hexahydro-4-[4-(trifluoromethoxy)benzoyl]-1H-cyclopenta[b]quinolin-9-yl]cyclopropylamino]-4-oxobutanoic acid] was tested. Which Ki did it give?
The Ki was 5.1 to 20 nM.

How did the Ki turn out when `N#Cc1ccc2c(c1)C(N(C(=O)CCC(=O)O)C1CC1)C1CCCC1N2C(=O)c1ccc(OC(F)(F)F)cc1` (single isomer, unassigned) [compound 50, 4-[[cis,cis-7-cyano-2,3,3a,4,9,9a-hexahydro-4-[4-(trifluoromethoxy)benzoyl]-1H-cyclopenta[b]quinolin-9-yl]cyclopropylamino]-4-oxobutanoic acid] was run?
Its Ki is 20.1 to 200 nM.

How did the Ki turn out when `[2H][C@@]1(N(CCCC(=O)O)C2CC2)c2ccccc2N(C(=O)OCc2ccccc2)[C@@H]2CCC[C@@H]21` (single isomer, unassigned) [compound 43, 4-(Phenylmethyl) deuterated-cis,cis-9-[(3-carboxypropyl)cyclopropylamino]-1,2,3,3a,9,9a-hexahydro-4H-cyclopenta[b]quinoline-4-carboxylate-(9D)] was run?
Its Ki is 5.1 to 20 nM.
